# Data published in the BET-seq Pho4 binding data (Le et al. 2018).
# The list shows a part of the results. These are noisy estimates, calculated here from bound and input reads.
# Target: T1, Pho4 (S. cerevisiae) (UniProt P07270)
# T1 sequence: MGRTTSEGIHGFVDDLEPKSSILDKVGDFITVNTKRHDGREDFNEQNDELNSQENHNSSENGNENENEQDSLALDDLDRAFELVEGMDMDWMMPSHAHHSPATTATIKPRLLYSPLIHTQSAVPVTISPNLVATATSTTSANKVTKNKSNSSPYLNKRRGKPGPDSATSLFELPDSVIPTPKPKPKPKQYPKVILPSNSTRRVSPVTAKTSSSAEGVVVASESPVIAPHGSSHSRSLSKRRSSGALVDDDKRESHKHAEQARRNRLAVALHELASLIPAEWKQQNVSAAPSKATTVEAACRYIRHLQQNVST
# Experiment: relative binding free energy (BET-seq); higher = weaker binding
# Conditions: reference: library average
row,Sequence,relative binding free energy [kcal/mol]
1,GTTAGCACGTGGCGCT,-0.11
2,TGGTACACGTGTGGAG,0.18
3,TATTACACGTGTGTTC,0.1
4,TGGGGCACGTGTGACA,-0.18
5,GATATCACGTGGGCTG,0.1
6,AGGAGCACGTGGTCAG,-0.23
7,CGGTGCACGTGTTAAA,0.02
8,TACTACACGTGGGGCG,0.12
9,CGGTACACGTGGGTGC,-0.12
10,AGTAGCACGTGGTAAG,-0.19
11,GTAGACACGTGTTTGA,0.07
12,ATAAGCACGTGAGGTG,0.25
13,ATCAACACGTGGTGTT,-0.18
14,AGCTGCACGTGTTTTG,0.08
15,TGTGTCACGTGGAAGC,0.07
16,GGGTGCACGTGAGATT,0.35
17,TGTGACACGTGGTATC,-0.1
18,TATGTCACGTGTTAAA,-0.02
19,TGGCCCACGTGTTGGG,-0.08
20,GAGCTCACGTGAGTGT,0.38
21,TGTGGCACGTGTGACG,0.01
22,CGGATCACGTGAGGTA,0.34
23,GGAGTCACGTGCAGTG,0.19

row,Sequence,relative binding free energy [kcal/mol]
1,ATGTTCACGTGTTTTA,0.23
2,GGATGCACGTGGTTAT,0.01
3,GTAAGCACGTGGGTAT,-0.08
4,GGTTACACGTGGATTC,0.22
5,AAGAGCACGTGGAAGT,0.06
6,TTCAACACGTGGTAGT,0.02
7,GGATACACGTGGTAAT,0
8,TGTCGCACGTGTAGGA,-0.02
9,GATGGCACGTGTAGCT,0.03
10,GGTAACACGTGCGTGT,0.14
11,TGGTTCACGTGTAGTC,0.28
12,TTGTCCACGTGCATTT,0.18
13,TTCCGCACGTGGTTGG,-0.11
14,TGTTACACGTGGCTGT,0.02
15,GTGACCACGTGGTTTT,-0.02
16,GTTGACACGTGAGTTT,0.25
17,GGGATCACGTGTGCGA,0.32
18,CCGGGCACGTGGGTTG,-0.31
19,TGGCACACGTGTGAAA,0.34
20,GTTGACACGTGTGTGC,0.13
21,ATTTACACGTGACGTG,0.12
22,GTGCTCACGTGGTTAT,0.25
23,ACGTGCACGTGCTGTG,-0.19

row,Sequence,relative binding free energy [kcal/mol]
1,CTTTTCACGTGTGTGT,0.26
2,TGCGACACGTGGGTCG,-0.11
3,TGGGACACGTGTGACG,0.15
4,TGAAACACGTGGTTAA,-0.05
5,GGCGGCACGTGGTCGA,-0.14
6,TGTGGCACGTGTAATT,0.08
7,TTAATCACGTGGGGAG,0.05
8,TGGTCCACGTGTGCTT,0.05
9,ATTGGCACGTGTGATG,0.03
10,TTCGGCACGTGTTATA,-0.07
11,TTTTTCACGTGTTCGT,0.2
12,AGGGTCACGTGAGGGG,0.28
13,TATGTCACGTGAATGC,0.28
14,AATTTCACGTGGCGGT,0.09
15,GTCGGCACGTGGTTAG,-0.04
16,GCTAGCACGTGGTTCG,0.07
17,GAGGACACGTGGGCGT,0.02
18,AGTGTCACGTGTCGAT,0.14
19,ATTTGCACGTGAATGT,0.31
20,GAATTCACGTGGGGGA,0.23
21,TTTGGCACGTGAGACT,0.06
22,TTGAACACGTGGGGAA,0.01
23,TACTGCACGTGTGGTG,-0.03

row,Sequence,relative binding free energy [kcal/mol]
1,TGTTTCACGTGGTAAA,0.26
2,GAGGTCACGTGATAGG,0.12
3,TATTGCACGTGGGTAC,-0.19
4,ATGCGCACGTGTTTTA,-0.09
5,GTGGTCACGTGAGTGT,0.32
6,TATATCACGTGGTTTC,0.13
7,AAATGCACGTGAGGAA,0.27
8,GTAGTCACGTGTGGTA,0.29
9,TAAGTCACGTGCTTGT,-0.01
10,TCGTACACGTGGTGTG,-0.16
11,TGTTTCACGTGTGCTA,0.32
12,AATTGCACGTGGGATT,-0.03
13,TGCACCACGTGGGTGG,-0.29
14,GTATGCACGTGTATCG,0.11
15,GTTATCACGTGTGTAA,0.14
16,TAATACACGTGGTAGA,0.01
17,ATTGGCACGTGTTGAA,0.04
18,GGGCTCACGTGGTTAG,0.27
19,TAGAACACGTGTAGTG,-0.11
20,AGGCTCACGTGGATAG,0.29
21,ATCTGCACGTGGATGT,-0.03
22,GGGCCCACGTGTTGGT,-0.01
23,AATGTCACGTGGGTTC,0

row,Sequence,relative binding free energy [kcal/mol]
1,GTAGCCACGTGGAGGT,-0.09
2,TGGTGCACGTGGCGGA,-0.13
3,ATCGTCACGTGGGCGT,-0.02
4,TTTAGCACGTGTTCAT,-0.05
5,TTTGGCACGTGCTGTG,-0.1
6,GCAGGCACGTGTGGGG,-0.09
7,TTTCTCACGTGTGCAG,0.31
8,CAATTCACGTGAGGGT,0.53
9,AACTTCACGTGGTGGT,0.28
10,TATCGCACGTGGCGTG,-0.17
11,TCAGTCACGTGAGGGG,0.26
12,CCTGTCACGTGTGGTA,0.02
13,ATAGACACGTGGTTGG,0.06
14,CGCTTCACGTGTATGT,0.15
15,AGTTTCACGTGGAGGA,0.32
16,AATAACACGTGTGGGA,0.02
17,GGGTGCACGTGCGGAC,0
18,TGTCACACGTGTGTGT,0
19,GTTTTCACGTGAGGCA,0.54
20,ATATACACGTGGTGTG,-0.06
21,AAGGTCACGTGTGGTT,0.11
22,TCTCGCACGTGATGGG,0.01
23,TTGGACACGTGAATTG,0.45
